Source: the supplement of paper PMC11417369
Some of the results follow.

What follows are sequences tested on PfSIP2 AP2 domain 1 (GST-tagged) (assay: gcPBM binding intensity (ln(normalized median fluorescence intensity)); higher = stronger DNA binding).
In short: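 An Agilent 4 × 180k array carrying primer-extended double-stranded 36-bp intergenic genomic probes and negative controls received GST-tagged P. falciparum DNA-binding domains expressed in E. coli, about 25 μg on average, for 1 h. The binding buffer contained 1× PBS, 1% milk, 0.2 mg/ml BSA, 0.5% salmon testes DNA and 0.03% Triton X-100. Binding intensity is the top Masliner-normalised natural-log median intensity across replicate spots of either probe orientation, read after Alexa488 anti-GST antibody staining and a 488 nm scan.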

Sequence | gcPBM binding intensity (ln)
TTTAATTTGATAGACACATGCACACGTGCAATACTT [TGCATGCA_site777] | 9.11
TACTAAAAAATATAAACACACATATATTTTACATAT [CACACA_site2042] | 6.98
TTTGTAAGAAATAAATGTACAAAAATTAATTTTTAT [XGTACX_site8983] | 6.84
ATATTAAAATTAAACGCATGCATATATTATAAAAGA [TGCATGCA_site231] | 6.89
CTAATTAATGGGTACATACACACATATATACATACA [CACACA_site743] | 7.16
TTCTGTATAACACAAATTTTTTTTTATTCACTCTGT [TGCATGCA_negctrl_site410] | 6.93
TTTTTATCAAATAAATGTACACATATTAAATGAAAT [XGTACX_site555] | 7.11
AACACTTCATACACGTGTACAAATATAATATAGACA [XGTACX_site5671] | 7.23
GGAAATAATATTATTACACACCAAAATGTATAAAAA [CACACA_site4036] | 6.89
AAAATATTCACGTGTACATATATATATATATATTAT [TGCATGCA_negctrl_site192] | 7.4
AAAAAAAAAAAAAACACACACACACGCATACAAAAT [CACACA_site6794] | 7.5
TTATATCTTATAAAATGTACATAAAATATATAATAT [XGTACX_site7647] | 7.18
ATATTTTTCTTAAGTACACACTAAATAGAAACTAAA [CACACA_site4191] | 7.31
ATTAATTATATAATATGTACATATTACAAATATATA [XGTACX_site1478] | 7.22
AATAATATAACAGAACAAAACTAAATATACACATAT [TGCATGCA_negctrl_site31] | 7.14
TATTTCATAATAAATTGTACGCGTAGAAAACCATGA [XGTACX_site7506] | 7.35
TATATATATATAGATGCATGCAATTACATATAACAA [TGCATGCA_site118] | 9.05
TTGTGTACATATTAAGTGCATATATATATATATATA | 9.85
ATTTTCTATATCTTTCAACACACAAATTTTTTTTTC [CACACA_site7918] | 7.15
TACATCAAACAAGTATGTACATATATATATATATAT [XGTACX_site7415] | 9.31
GCATATGATGAGCATATAATCATAAGAAAAAAAAAA [CACACA_negctrl_site701] | 6.72
AATAAATAGTAGTAGGTGCTACTATATTATATATAT [GTGCAC_site9452] | 7.65

Sequence | gcPBM binding intensity (ln)
TATGTAATAATAAACGGTACACTATATTGTATGAAA [XGTACX_site4648] | 7.08
ATTATGAATTTTAATTGTACATTATTATAGAATGTA [XGTACX_site619] | 6.76
AGTTATTTTTATATTTCACACACATATACTTTTACA [CACACA_site9357] | 7.21
AATAATTCTTAAAGGTGTACAATATGTATATAAGAA [XGTACX_site595] | 7.39
AAAAATTCTTCCCAAGCATGCGCGCGTAAAATATTT [TGCATGCA_site77] | 6.67
AAATTTTTTATTAGTAGTACGCATAAATATATGTAT [XGTACX_site1934] | 7.22
AAAAAAAAAAGAAAAGGTACACAGAATATATATATA [XGTACX_site6914] | 9.16
AAAAAAATAAGACACACACACAAAAAAATAAAAATA [CACACA_site6357] | 6.83
ATATATATATCAAAATGTACAAAAATAGAATTTAAA [XGTACX_site8292] | 8.27
CCTTTCCTAGCACATGCACACAAAAAAAAAAAAAAA [CACACA_site8396] | 7.9
AAAATTAAAATATCACGTACGAAGAAAAAATTAAGA [XGTACX_site6437] | 6.96
TACACCCACCAACACACACACACACTAATAAAAAAA [CACACA_site8060] | 7.64
ATCTTTTTACTTAATACACACACACCCAAAAAAAAA [CACACA_site8221] | 7.78
AAACGGCTATTAAAATGTACATGTAAATATATTAAA [XGTACX_site918] | 6.96
AATACATATGGGTGTACACATTATATATATATATAT [CACACA_site4601] | 9.35
CATGAATATTTATACATGCACACTAAAATAAAGAAT [CACACA_site2412] | 8.63
GAGGGTATAATAAAAGCACACACAAAGATATAAATA [CACACA_site9087] | 7.22
TATATATATATATACACACACACACCCCAAAGCGTA [CACACA_site64] | 9.76
ACATTTTGTAAAGAATGTACATATATATATATATTC [XGTACX_site8004] | 7.33
AAAAAATGCGACATGTGTACACATATATATATATAT [XGTACX_site1679] | 9.79
GAAAATATTACATACACGCACACATTAATATATTTA [CACACA_site2604] | 7.32
GTTTCTATTCACATTTTACACACGTCCATCGCATTT [CACACA_site9142] | 7.45

Sequence | gcPBM binding intensity (ln)
TTTTGTTGTATGATAATTCTTTTATCAATATGTCTT [TGCATGCA_negctrl_site567] | 6.63
ACCAAATTATCAAATGGTACACATAAAATAATAAAA [XGTACX_site865] | 7.12
TAATTAACCTATGCATTCATATAGATACATAAATAT [CACACA_negctrl_site885] | 7.06
AGATCATAATATTATACACACATTATGTATATGTAA [CACACA_site1490] | 6.84
TGAATACATAAATATAGTACATATATATATATATTA [XGTACX_site8756] | 7.37
TATAATATTATTTGAAGTACAAACATAAAAGAATTA [XGTACX_site3161] | 7.13
TACAAAAAATTATGGAGTACATATATAATATACAAT [XGTACX_site1004] | 6.96
GAACCATTTTTTGGTATACACACGTAATTATAGAAT [CACACA_site1851] | 6.89
ATATACATATCATGTAGTACAATTTTTTTACTTTTT [XGTACX_site7988] | 6.95
CACTTTTTTTAAATGTGTACGTATATGAAAATATCA [XGTACX_site4854] | 7.15
TAAAAAAATAAAATTACACACATATATAGATATATA [CACACA_site7273] | 6.66
TAAACAAAAAGGAAGAGTACTTGTAAAATTTGTAAA [XGTACX_site3003] | 6.93
ACAAAAAAAAATATGTTAACTATATATATATATATA [CACACA_negctrl_site346] | 9.39
AATTGGGAACTGTAATGTACATATATTGAAAGTATA [XGTACX_site7081] | 7.13
TATTTATTTGTACATATACACACTTAAATATGTTTA [CACACA_site3902] | 7.06
TTATATTTCTTGAAGGGTACATACCATTATTTTTAA [XGTACX_site1159] | 7.03
ATATATTTATATATTACACACAATATTGGAGACATA [CACACA_site931] | 6.98
AGAAAACTCGCTTTTCTAAATCTCAAAAAAAAAAAA [XGTACX_negctrl_site94] | 6.91
ATACATATATTAGGATGTACGTTTATTTTAGTTATT [XGTACX_site7169] | 7.2
CATATCTCAATTTATGCATGCAGGATTTTTCTAATA [TGCATGCA_site516] | 6.98
TTTTTTTTTTTTTGGTGTACATTTATAAAAAAAAAA [XGTACX_site8368] | 7.45
AATATGTACAGACATACACACATATATATATATATA [CACACA_site1222] | 9.61

Sequence | gcPBM binding intensity (ln)
ACACAAAAAAAAAAAAAAAAAAAAAAAAAAAAGGAA [CACACA_negctrl_site1162] | 6.88
ACATATAAGATTATGTGTCCACAAAAAAATAAAACA [XGTACX_site2867] | 7.1
TTTTTAATAACACTTTTGAAAAATAAAATAAAATAA [CACACA_negctrl_site821] | 6.99
TTTTTTTATTATTCTTATATAAAAATTTTTTTTAAT [CACACA_negctrl_site159] | 6.73
TTTTATGTTCTTAATGCACACTTATAAGTATCTTAT [CACACA_site4895] | 7.53
TTATTCTTTTAATATACACACTTTGTCTTTTCGCGC [CACACA_site5525] | 6.8
ATATATATAAAAGAAACAACATTTATTCAAAAGGTA [CACACA_negctrl_site749] | 7.25
TTTTAAATTTAGTGTAGTACACTTTTTTCAAATATA [XGTACX_site4659] | 7.02
TACTTTTATAAAAATTTTATCAAATTCTATATATGT [TGCATGCA_negctrl_site308] | 6.96
ATATTATCATTTTTTTTAATGGAAAAAAAAAAAAAA [CACACA_negctrl_site1298] | 6.87
ATATAATTCAAATACAGTACATATACAATATATACA [XGTACX_site1191] | 7.01
AATAACAAAATAGGCACACGCACATATATATATATA [CACACA_site1497] | 9.49
TATTTTTCTTTTTAAAAATATATCACATGAACATTA [XGTACX_negctrl_site183] | 6.67
TACATATTTATATACACACACACACGGATATTTATA [CACACA_site7239] | 7.1
GCACCCTGTATGAATGCACACATTCATAGAATTGCT [CACACA_site5475] | 8.46
ATTCAAAAGATGTATACACACATGTGGATAATATAA [CACACA_site2443] | 6.9
TGATCAAATAAGTTTGCATGTCAACAATGCATATAT [TGCATGCA_site1025] | 7.19
GAATTCCTTTGTGTATGTACATAATGATATTATTTT [XGTACX_site7369] | 6.98
CCCCTTGTGGATTCTACACACAAAAAGTCGTCAAAA [CACACA_site821] | 7.12
TAATTTTTTAAACACACACACATATATATATATATA [CACACA_site4230] | 9.45
TTTTTTTTTTTTGGTAGTACATAATATTAATATAAT [XGTACX_site4422] | 7.01
TATATTTTCCTGCAAACACACATATAAATGGGTAGA [CACACA_site4451] | 7.08
